Data taken from article PMC4336329 (PLoS ONE, 2015).
About 2,200 (0.71%) of roughly 310,000 compounds showed an effect of 50% or more. Effects have a minus sign here. Some of the results follow.

target: human ether-à-go-go-related gene (hERG) potassium channel (human, UniProt Q12809); assay: primary screen, population patch clamp on CHO cells stably expressing hERG
Sequence (Q12809 whole entry, looked up): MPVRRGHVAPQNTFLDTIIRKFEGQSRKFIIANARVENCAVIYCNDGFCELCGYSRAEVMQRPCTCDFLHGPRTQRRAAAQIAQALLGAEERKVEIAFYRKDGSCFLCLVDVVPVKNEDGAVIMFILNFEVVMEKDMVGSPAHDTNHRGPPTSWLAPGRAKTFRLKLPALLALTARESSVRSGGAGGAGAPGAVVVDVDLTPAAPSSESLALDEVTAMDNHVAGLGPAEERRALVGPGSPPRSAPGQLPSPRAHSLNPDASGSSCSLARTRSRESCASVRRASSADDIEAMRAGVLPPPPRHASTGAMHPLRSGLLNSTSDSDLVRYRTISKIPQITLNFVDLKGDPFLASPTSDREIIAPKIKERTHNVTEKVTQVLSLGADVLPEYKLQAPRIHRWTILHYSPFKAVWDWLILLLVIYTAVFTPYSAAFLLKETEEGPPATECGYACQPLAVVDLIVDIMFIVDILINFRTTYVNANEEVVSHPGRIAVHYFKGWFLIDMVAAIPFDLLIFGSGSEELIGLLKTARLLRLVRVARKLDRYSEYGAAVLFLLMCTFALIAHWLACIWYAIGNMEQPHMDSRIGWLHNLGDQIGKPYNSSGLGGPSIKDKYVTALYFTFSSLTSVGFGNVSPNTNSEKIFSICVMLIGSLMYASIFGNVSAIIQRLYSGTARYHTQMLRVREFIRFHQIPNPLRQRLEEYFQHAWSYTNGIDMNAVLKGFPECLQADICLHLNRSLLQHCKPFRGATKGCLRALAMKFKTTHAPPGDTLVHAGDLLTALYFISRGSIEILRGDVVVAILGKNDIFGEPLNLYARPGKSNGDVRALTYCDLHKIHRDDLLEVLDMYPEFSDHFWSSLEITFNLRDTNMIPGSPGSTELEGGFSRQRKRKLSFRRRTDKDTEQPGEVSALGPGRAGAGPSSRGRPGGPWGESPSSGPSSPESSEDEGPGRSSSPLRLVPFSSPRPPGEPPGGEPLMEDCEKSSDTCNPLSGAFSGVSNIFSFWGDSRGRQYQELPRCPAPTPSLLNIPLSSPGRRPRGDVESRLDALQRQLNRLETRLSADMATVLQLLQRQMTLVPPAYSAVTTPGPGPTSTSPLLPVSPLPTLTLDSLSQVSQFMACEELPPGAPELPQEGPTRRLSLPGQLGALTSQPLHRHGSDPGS

| Compound | hERG current change (%, negative = inhibition) at 1uM [%] |
| --- | --- |
| Cc1cc(C)c2c(-n3cccc3)c(C(=O)O)sc2n1 | 9.5 |
| Cc1nn(-c2ccccc2)c(C)c1/C=N/NC(=O)CSc1nnc(SCc2ccccc2Cl)s1 | -15 |
| COc1cc(CNn2c(C)n[nH]c2=S)cc(Cl)c1OCc1ccc(F)cc1 | 15.9 |
| O=C(O)CC(CC(=O)Nc1ccc(C(=O)O)cc1)c1ccccc1 (centres unmarked) | 14.4 |
| NC(=S)Nc1ccc(C(F)(F)F)cc1Cl | 11.9 |
| CCC(C(=O)NCc1ccco1)n1nc(-c2ccc(OC)cc2)ccc1=O (centres unmarked) | 0.708 |
| CN(C)CCOC1c2ccccc2C=Cc2ccccc21.O=C(O)/C=C\C(=O)O | 12.3 |
| COc1ccc(OCC(O)Cn2c(N3CCCCC3)nc3c2c(=O)n(C)c(=O)n3C)cc1 (centres unmarked) | 0.4 |
| COc1ccc(C2=NS(=O)(=O)N(C)C(C(=O)N3CCC(C(N)=O)CC3)=C2)cc1 | -8.49 |
| COc1ccc(-c2cnn3cc(-c4cccc(Cl)c4)cnc23)cc1 | 11.9 |
| COC(CNC(=O)c1cn(C)c2ccc(S(=O)(=O)N3CCOCC3)cc2c1=O)OC | 12.9 |
| CCCC(C(=O)NC1CCCC1)N(CC1CCCO1)C(=O)CNS(=O)(=O)c1ccc(F)cc1 (centres unmarked) | 7.49 |
| O=C(NCC(c1ccco1)N1CCN(c2ccccc2)CC1)C(=O)NC1CCCC1 (centres unmarked) | 6.06 |
| COc1ccc([N+](=O)[O-])cc1C(=O)NCCOc1ccc(Cl)cc1 | 4.88 |
| Cc1cc(C)cc(N(C(=O)Cc2cccs2)C(C(=O)NC2CCCCC2)c2ccccn2)c1 (centres unmarked) | -18.4 |
| COc1cc(C(=O)NCCN=C2NS(=O)(=O)c3ccccc32)cc(OC)c1OC | 13.2 |
| Cc1ccc2ccc3ccc(C)nc3c2n1 | 10.3 |
| CC1(C2CC2)NC(=O)N(CC(=O)Nc2ccc(C(F)(F)F)cc2)C1=O (centres unmarked) | 4.62 |
| O=C(c1ccc(NS(=O)(=O)c2ccccc2)cc1)N1CCN(Cc2ccc3c(c2)OCO3)CC1 | 10.2 |
| O=C(c1ccc(F)cc1)c1ccc(CN2C(=O)c3ccccc3C2=O)o1 | 4.32 |
| COc1ccc(-c2nc3ccccc3c(=O)o2)cc1OC | 18 |
| Cc1cccc(OCC(=O)N2CCC3(CC2)CC(=O)c2ccccc2O3)c1 | -6.58 |
| CNCc1c(OCc2ccc(F)cc2)ccc2ccccc12.Cl | -2.06 |
